Among all 110,000 compounds or so, about 230 (0.21%) showed an effect of 50% or more. The list shows a part of the results.
What follows are compounds tested against DPAP1 (Plasmodium falciparum, UniProt Q8IIJ9) (assay: primary screen, percent inhibition; read by cleavage of a fluorogenic dipeptide substrate; higher = more effect of the substance).
Set-up: species or system P. falciparum D10 trophozoite lysates; single well
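Further: 30 min substrate incubation versus DMSO and 10 µM JCP410 controls.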

DPAP1, sequence (Q8IIJ9 whole entry, looked up): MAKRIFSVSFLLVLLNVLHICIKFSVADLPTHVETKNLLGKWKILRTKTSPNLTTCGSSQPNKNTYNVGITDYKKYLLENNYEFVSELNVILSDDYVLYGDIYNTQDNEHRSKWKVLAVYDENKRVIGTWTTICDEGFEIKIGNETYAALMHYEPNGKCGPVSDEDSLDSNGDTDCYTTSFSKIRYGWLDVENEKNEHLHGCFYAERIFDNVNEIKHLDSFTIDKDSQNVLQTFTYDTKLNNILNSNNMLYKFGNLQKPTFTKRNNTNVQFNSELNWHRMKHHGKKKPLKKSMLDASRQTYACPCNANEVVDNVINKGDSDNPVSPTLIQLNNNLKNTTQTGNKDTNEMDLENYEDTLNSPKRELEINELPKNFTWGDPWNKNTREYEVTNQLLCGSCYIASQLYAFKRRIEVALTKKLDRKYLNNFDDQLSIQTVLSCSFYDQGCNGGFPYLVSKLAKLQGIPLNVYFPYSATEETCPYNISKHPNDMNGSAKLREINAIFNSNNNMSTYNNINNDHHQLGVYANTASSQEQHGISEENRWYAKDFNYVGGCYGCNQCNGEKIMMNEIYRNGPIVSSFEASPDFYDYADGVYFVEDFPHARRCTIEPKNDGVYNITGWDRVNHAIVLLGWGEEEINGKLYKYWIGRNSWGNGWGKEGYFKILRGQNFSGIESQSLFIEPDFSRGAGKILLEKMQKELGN

Structure (SMILES) | % Inhibition @ 10 uM [%]
Cc1nn(Cc2cccc3ccccc23)c(C)c1N | -0.222
Cc1ccc(C)c(S(=O)(=O)c2nnn3c2nc(O)c2sccc23)c1 | -3.13
Cc1c(C(=O)C(F)(F)F)c2ccccc2n1CC(=O)NC1CCCCCC1 | -1.92
CNS(=O)(=O)c1cn(CC(=O)NCc2ccccn2)cc1S(=O)(=O)NC | -7.87
O=C(O)CCCNC(=O)c1ccccc1C(=O)O | -5.51
CCc1c(C)sc(NC(=O)c2ccco2)c1C(N)=O | 14.9
O=C(c1ccccc1Cl)N1CCCCCC1 | -3.79
Cc1cccc(NC(=O)c2ccc(S(=O)(=O)N3CCCCC3C)cc2)c1 (stereo not shown) | 3.81
CC(C)Oc1ccc(C(CC(=O)O)n2cnnn2)cc1 (stereo not shown) | -7.96
CCCCNC(=O)c1ccc(SC)cc1OC | -2.88
N#CC(C#N)=Cc1cc(-c2ccccc2)nn1-c1ccccc1 | 21.2
C=CCOc1ccc(/C=C2\C(=O)N(CCC3=CCCCC3)C(C)=C2C(=O)OC)cc1OC | 1.91
CCc1noc2c1/C(=N\O)CC(c1ccccc1)C2 (stereo not shown) | -2.55
Clc1ccccc1OCCCCN1CCOCC1 | -0.351
COc1cc(C2Nc3ccc4ncccc4c3C3=C2C(=O)CCC3)cc(OC)c1O (stereo not shown) | -2.54
CCN(CC)C(=O)COc1ccc(Cl)cc1Cl | -5.46
COc1ccc(C2(C)CC(C)(C)Nc3ccccc32)cc1 (stereo not shown) | -6.18
CCOc1ccc(NC(=O)C23CC4CC(CC(C4)C2)C3)cc1 | 5.63
CC(=O)c1cn(C)c(=O)c2ccccc12 | 1.54
Cc1ccc(C(=O)N/C(=C\c2cc(-c3ccccc3)nn2-c2ccccc2)C(=O)NCc2ccccc2)cc1 | -8.12
CNC(=O)C1=C(C)NC(=O)NC1c1ccc(Cl)cc1 (stereo not shown) | 2.09
COc1cc(/C=C2\SC(NC(C)=O)=NC2=O)ccc1OCc1ccccc1C | 1.37
CC1(C)CC(=O)c2c(nc(SCC(N)=O)c(C#N)c2-c2ccccc2)C1 | 2.44
COc1cc(/C=C(/C#N)C(=O)NC2CCCCC2)ccc1O | 2.94
ClC(CSc1nnnn1-c1ccccc1)c1ccccc1 (stereo not shown) | -2.62
CCS(=O)(=O)N1CCCC(C(=O)NCCc2ccccc2)C1 (stereo not shown) | -7.35

Structure (SMILES) | % Inhibition @ 10 uM [%]
O=C(NCC1CCCO1)C(Cc1ccccc1)NS(=O)(=O)c1cccc2nsnc12 (stereo not shown) | 0.317
COc1ccc(-c2c(C)[n+]([O-])c3c([n+]2[O-])CCCC3)cc1 | -5.28
Cc1c(C(=O)NC(C)CCc2ccccc2)sc2nc3n(c(=O)c12)CCCCC3 (stereo not shown) | -6.34
Cc1cccc(-c2noc(CNC(=O)COc3ccc(Br)c(C)c3)n2)c1 | -1.22
COc1c([N+](=O)[O-])cc2c(C)c(C(=O)N3CCN(C)CC3)oc2c1OC | -1.22
O=C(c1ccc(Br)cc1)n1c(=O)oc2ccccc21 | -1.06
Cc1cc(C(=O)O)c2cccc(C)c2n1 | 3.68
Brc1cccc(CNCc2cccnc2)c1 | 2.46
O=c1oc2ccc3ccccc3c2cc1-c1nc(-c2ccc(Br)cc2)cs1 | -4.31
COc1ccc(/C=N/n2c(C)nnc2-n2nc(C)cc2C)c(OC)c1 | -2.65
COc1ccc(Cl)cc1S(=O)(=O)N1CCN(C)CC1 | -1.32
COc1ccc(CN2CCN(CCCc3ccccc3)CC2)c(OC)c1 | -8.57
Cc1c(CNC2CCCC(C)C2C)c(C(=O)O)c(C)n1Cc1ccccc1 (stereo not shown) | -1.92
N#CC1=C(N)Oc2cc(N)ccc2C1c1ccc(-c2ccccc2)cc1 (stereo not shown) | -1.38
CC(C)C[C@H](NC(=O)c1cccc(-c2cncnc2)c1)C(=O)NCC#N | -0.207
COc1ccc(-n2c(C)c3c(C)nnc(C)c3c2C)c(OC)c1 | 3.47
COc1ccc(CNC(=O)c2cnn3c2NC(c2ccccc2)CC3C(F)(F)F)cc1 (stereo not shown) | 2.79
COc1ccccc1C(=O)NC1CCCCCCC1 | -0.349
CCn1c(C(=O)O)c(CNCc2ccc(C)o2)c2ccc(C)cc21 | -5.37
CS(=O)(=O)N(Cc1ccccc1Cl)c1ccc(C(=O)N2CCCCC2)cc1 | 0.755
CC(C)(C)SC[C@H](NC(=O)c1ccccc1)C(=O)NCC#N | 1.35
O=C1c2ccccc2NC(c2ccc(Br)cc2)N1c1ccc(Cl)c(Cl)c1 (stereo not shown) | -5.2
Cc1cccc(-c2cc(C(=O)O)c3c(-c4ccccc4)[nH]nc3n2)c1 | 4.85
CCc1ccc(OCC(=O)Nc2cccc(C(C)=O)c2)c(Br)c1 | -1.92
CCCS(=O)(=O)N1CCC(C(=O)N2CCC(Cc3ccccc3)CC2)CC1 | -0.0542
CCOc1ccccc1C(=O)Nc1sc2c(c1C(N)=O)CCC(C)C2 (stereo not shown) | 1.15

Structure (SMILES) | % Inhibition @ 10 uM [%]
Cn1cnnc1SCC(=O)n1c2ccccc2c2ccccc21 | 1.91
Cc1cccc(NC(=O)C2CCCN(S(=O)(=O)c3c[nH]cn3)C2)n1 (stereo not shown) | -3.7
Cc1ccc(Cc2nn3c(=O)/c(=C/C=C/c4ccccc4)sc3nc2=O)cc1 | 1.23
CC(C)CC(NC(=O)OCc1ccccc1)C(=O)OC1C(C2COC(C)(C)O2)OC2OC(C)(C)OC21 (stereo not shown) | -5.38
Cc1ccc(CNC(=O)CCn2nc(-c3ccccc3)ccc2=O)cc1 | 4.81
CCN1C=CC(=Cc2sc3ccccc3[n+]2CCCS(=O)(=O)O)C=C1 | -8.7
CC(C(=O)Nc1ccc(F)cc1)N1C(=O)c2ccccc2C1=O (stereo not shown) | 7.76
CCOC(=O)N1CCN(c2nc(-c3cccs3)cc(C(F)(F)F)n2)CC1 | -1.31
CCCCN(CC)CCNC(=O)c1cc2c(O)nc3ccccc3c2s1 | -0.499
COCC(=O)n1ncc(-c2ccc(OCc3ccc(Cl)cc3)cc2)c1N | -5.81
Cc1ccc(C(=O)N/C(=C\c2ccc3c(c2)OCO3)C(=O)NC(Cc2ccccc2)C(=O)O)cc1 (stereo not shown) | 3.54
Cc1cc(C)c2nc(-c3cccs3)cc(C(=O)O)c2c1 | 3.69
CCCCN(Cc1ccccc1)C1CCN(CC)CC1 | -0.0953
O=C1C2CCCCC2C(=O)N1c1cccc(Cl)c1Cl (stereo not shown) | -19.9
Cc1[nH]c2ccccc2c1SCCNC(=O)COc1ccc(Cl)cc1Cl | -0.228
O=C(CN1Cc2ccccc2C1=O)NCCc1c[nH]c2ccccc12 | 2.84
Cc1ccc(S(=O)(=O)N2CCC(=O)c3cc(C)ccc32)cc1 | 0.323
CC1CCCC(N2CCC(O)(c3ccc(Br)cc3)CC2)C1 (stereo not shown) | -5.44
CCn1nc(C(=O)Nc2cccc(C(F)(F)F)c2)c(Cl)c1Cl | -7.16
CCOC(=O)c1cnc(SCc2nc(-c3ccc(OC)cc3)oc2C)nc1N | 3.99
CCN(CC)c1nc(Nc2ccc(Cl)cc2)nc(N(CC)CC)n1 | -5.32
CN(CCc1ccccn1)C(=O)c1cc2c(s1)-c1ccccc1OC2 | 11.8
CC1=C(C(=O)OC2CCCC2)C(c2ccsc2)C2=C(O)CC(c3cccs3)CC2=N1 (stereo not shown) | 0.146
Cc1ccccc1C1=N/C(=C\c2cc(Br)cs2)C(=O)O1 | 2.7
CCCNC(=O)c1cnn2c(C)c(Cc3cccc(C)c3)c(C)nc12 | 2.9
COc1cc2c(cc1OC)C1(CCOCC1)CN(CCC(c1ccccc1)c1ccccc1O)C2 (stereo not shown) | 5.48

Structure (SMILES) | % Inhibition @ 10 uM [%]
COc1ccc(-n2cccc2C=C2C(=O)NC(=O)NC2=O)cc1Cl | -1.54
Cc1ccccc1C(=O)Nc1ccc(S(=O)(=O)N2CCc3ccccc32)cc1 | 0.583
O=C1NC(=O)/C(=C\c2ccc(-c3ccc(F)c(Cl)c3)o2)S1 | 4.86
Cc1nnc2c(N3CCN(C)CC3)nc3ccccc3n12 | -1.6
CC(=O)C1=C(C)OC(N)=C(C#N)C1c1cccnc1 (stereo not shown) | 2.85
Cc1ccc(NC(=O)c2c(N)sc3c2CCC3)cc1 | 3.27
Cc1cc(NC(=O)c2c(C)oc3ncn(C)c(=O)c23)no1 | 2.27
O=C(CCc1cn(Cc2ccccc2Cl)c2ccccc12)NCc1ccccn1 | 0.0244
Cc1cccc2c1NC(=O)/C2=C1\SC(Nc2ccc(Cl)cc2)=NC1=O | -6.64
CCOC(=O)c1c(C)nc2c(C#N)cnn2c1C | -4.03
COc1ccc(/C=C2\C(=O)/C(=C/c3ccc(OC)cc3)C3CCC2N3C)cc1 | -2.95
Cc1ccccc1CNC(=O)c1ccc2nc(N3CCCCC3)sc2c1 | 0.0882
COCc1cc(C)nc(SCC(=O)Nc2ccccc2)c1C#N | -1.06
O=C(Nc1sc2c(c1CN1CCN(C(=O)c3ccco3)CC1)CCC2)c1ccc(F)cc1 | 4.03
O=C(O)c1ccc(-n2nnnc2SCC(=O)N2CCOCC2)cc1 | 3.25
CCOC(=O)/C(C#N)=C/c1cccc2ccccc12 | -1.7
CC1=NN(c2cc(Cl)ccc2Cl)C(=O)C1 | -2.25
CC(=O)c1ccc(-n2c(C)ccc2C)cc1 | 3.86
Cc1ccc(C)c(-c2csc(N3N=C(c4ccccc4)CC3c3ccccc3)n2)c1 (stereo not shown) | 2.76
COc1ccc(C(=O)NCC2CCCO2)cc1Br (stereo not shown) | -8.95
Cc1ccc2c(c1)-c1c(cnn1CC(=O)NCCN(C)Cc1ccccc1)CO2 | -0.583
COc1ccc(Cl)cc1C(=O)Nc1ccc(Br)c(C)n1 | 70.4
Cc1cc2nc(O)c(O)nc2cc1S(=O)(=O)NCc1ccc2c(c1)OCO2 | 0.275
Cc1ccc(C(=O)Nc2ncccc2Cl)o1 | 3.76
O=[N+]([O-])c1ccccc1S(=O)(=O)N1CCN(c2ccccc2)CC1 | 2.46

Reference: publication PMC6919601, “Identification of Plasmodium dipeptidyl aminopeptidase allosteric inhibitors by high throughput screening” (PLoS ONE, 2019)
